Experimental data: the supplement of paper PMC3334620
Over roughly 33,000 sequences, “E-score (-0.5 to 0.5)” has its median near -0.01; the highest 2% begin near 0.26. Some of the results follow.

These sequences were tested against Ste12 (UniProt P13574) (assay: PBM E-score (8-mer binding enrichment) (E-score (-0.5 to 0.5)); higher = stronger / more preferred TF binding; most listed sequences are background and not binding sites). Conditions: protein concentration: 200 nM; construct: GST-DNA-binding domain.
In short: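 Universal all-10-mer Agilent arrays, double-stranded by primer extension on fresh or once-stripped slides, were probed with about 100-200 nM GST-tagged yeast transcription factors made by PURExpress. Fluorescent anti-GST detected bound protein, and masliner normalised the scans. E-scores from the Universal PBM Analysis Suite were given to each ungapped eight-base word pooled with its reverse complement.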

Sequence	PBM E-score
ATAATGTG	0.17
ATCGCATG	-0.0289
ACCCTCAG	-0.0573
GCGAGCGA	0.00126
AATGTGGC	0.0231
AAGATACT	0.0537
CCAAGTTC	-0.0421
GTGTTCCA	0.141
CGGCCCTA	-0.102
GTAAACTA	0.107
GCCGCTCA	-0.107
GCACCAGC	-0.101
ATTAGGAC	-0.179
TCTTACAA	0.0356
ACGGGAGG	-0.0864
CAACGAAA	0.13
GTTAATCA	0.0855
ACGCCCTA	-0.113
AGCCGTGA	0.125
ACAGTTAA	0.144
AGTTGCGG	0.209
AGTTAATC	0.0298
AGTCAACG	-0.226
ATGGAACG	0.0382
GAAAACAC	0.0529

Sequence	PBM E-score
ATCCAGAC	-0.0146
GCACCAAA	0.122
CTTAGTAC	-0.0372
AGAGGTGA	-0.042
GTAAGCCA	-0.0467
CATCATGC	-0.00066
AAGCGGAA	0.0453
ACAAGGTC	0.0964
ATCCATCC	0.07
GACGCAAC	-0.0807
AAGTCCAT	-0.184
ATTTCTTG	0.128
GAGTTACA	0.183
ATATTCTC	0.108
CATATGAC	0.0788
CCCATCCG	-0.00603
CATTATGC	0.0482
CCCATATA	0.115
GGGACACA	0.17
AGTGAAAC	0.394
CCTCGAAC	-0.0197
CTCTCGGA	0.0537
TCTGAAAA	0.12
CATATAAA	0.0963
GAGCCACC	-0.028

Sequence	PBM E-score
ATGCAAAA	0.133
CATCACCG	-0.119
CGGATCTC	-0.202
GCACTTCA	-0.0777
CCTGTCTA	0.0313
CGCAAGTA	0.00501
AACCGAAC	0.0486
CCGCTCGA	0.0774
ATAGTGTC	-0.0365
CGGTGAGC	-0.157
CAACTCCC	0.0312
CGCTTCGC	-0.25
AAGTTCAC	0.0472
CCGACAAA	-0.0229
CCGAGAAG	-0.0038
AGTTCACG	-0.169
CCTGGCGC	0.0112
AACCCAAT	0.06
CAACCCAC	0.0306
CCCTGTAC	-0.19
ATTCACGG	0.00567
AGCTAGTG	-0.0478
GTTAAGAA	0.0624
CCTCGTGA	0.0398
TGTTATAA	0.283

Sequence	PBM E-score
GCGGAGAA	0.0895
AATGGACA	-0.081
AAGAAGGC	-0.0892
CGTAGCTC	-0.0695
CATTTAAG	-0.0794
GTAAAGAA	0.0147
CGAATGAC	0.142
GCAGTTAC	-0.0853
CATTATAG	0.12
GACGCCTC	-0.0132
GGGAATTA	0.109
CACTCTAA	0.00474
ACCGTTAC	-0.0206
CCCACGCC	-0.0857
ATACGAAT	0.00827
GTTACAGA	0.18
ATCTCTCG	-0.0464
CCTCATCA	0.066
TCGATTCA	0.118
AATATAGA	0.123
AAACTCCT	-0.00655
ACAGAAAA	0.232
AGATCATA	-0.087
CCGCAAGA	-0.0329
GACCTTGC	-0.216

Sequence	PBM E-score
GCATAGCA	-0.0674
AAGTTTAT	0.158
AGGTGCAC	-0.0399
GTATCCCA	-0.025
GGGGTCTA	-0.00725
CACTACTA	-0.049
ATTCGCAA	0.0321
AAAGGCAA	0.133
CACCCATG	-0.149
ATATGAGC	-0.042
GGCATACC	-0.271
AGTAGTAC	-0.0646
CAATAAGC	0.0921
CCTGCGTA	-0.149
AACTGTTA	0.0976
AAGGTTAT	0.0194
AACCGAGT	-0.206
CAAAGCTG	-0.0285
ACACGTCG	-0.21
GAGTGGCC	-0.137
AATGGTTC	-0.0247
GGCAAAGA	0.138
GACCGAAC	0.104
ATGAGACA	0.338
GCATCGCC	-0.18

Sequence	PBM E-score
AGTGCGTG	-0.0891
CGCAAGCC	0.0766
ACTTTCCT	-0.0706
GACGGCAA	0.0517
ATGACTTC	-0.0836
AAGGTAAG	-0.00826
TATGCGCA	-0.196
GTGACTTA	0.0415
ACGCCTGA	-0.135
CATTTGGC	7e-05
GGCAGGGA	0.0949
ACGCGACC	-0.135
CAATCGCG	-0.0142
CCCAATTC	0.167
AGTAAGGA	0.048
CGTCGAGC	-0.065
TAACCCAA	0.182
TCATGGCA	0.0667
CAATCGAG	-0.109
GAAATGCA	0.109
GCGCTGCC	-0.179
GCGTGACA	0.126
CTGCTATA	-0.0198
CCTAAGCA	-0.196
ACCATGTC	0.00229

Sequence	PBM E-score
CGGTTTTA	0.189
CATTCCCC	-0.0665
GGAAGTAA	0.0621
CGCTGGAA	0.0114
AAGCTCTA	-0.0834
ATCACGGG	0.0394
CGACGGCA	-0.00442
GGTAATTA	0.0627
GACATGAC	-0.0572
CCGAATTC	-0.00494
ATAGATAC	0.0939
GTACACGA	-0.0985
CCGTATGA	-0.0203
TTACTGAA	0.0569
GACATTCA	0.0286
AGCAGTCC	-0.293
CGCGCTGA	0.0713
GAAAAAAA	0.369
CCGGTTTC	0.298
AGGCCCTG	-0.235
CTAAGACA	0.0664
GACAAATC	0.16
GAAAAGAC	0.102
CGCCTTAC	-0.0868
TCTGCTCA	-0.0821

Sequence	PBM E-score
CAAAAGGG	-0.115
CCGTACCA	0.052
ATTACTTA	0.113
CTTATTTC	0.157
CGTTACCA	0.0903
CTAGACGC	-0.206
CTAAAGAG	0.0426
AACCCGCG	0.188
AACATGTG	0.261
CGGTGACA	0.0734
CATAGCAC	0.0266
CCCCGACG	-0.0518
CTAAACAG	0.0203
CATCACTA	-0.118
AAAAGTGC	0.0185
GAATCATA	0.0963
CCACCGGG	-0.144
CATTTAAA	0.277
CCGGTTTA	-0.00824
AGGCCAGA	0.107
GTCATAAC	0.0163
GGATTAGA	0.11
AGATAACG	-0.0951
CACTACGA	-0.0784
GAAGCTGA	-0.0304

Sequence	PBM E-score
GCACCGAC	-0.167
GATTTACA	0.0155
AGTTTTTG	0.239
CACTGTAC	-0.287
CATAATGC	-0.0326
ACGTTGCT	-0.0688
GCCTCCCA	-0.104
GAACGACA	0.015
GGCAGGAC	-0.227
CCGGTCCC	-0.0788
ATTACGAG	0.0384
CTCTTAGA	-0.134
TCGTCACA	0.115
AGAAAAAC	0.146
ACATCATA	0.151
CCATCCCC	0.0914
CACATGCG	-0.184
AATTAGCC	-0.0154
AGATTATG	0.0156
AGCGTGGG	-0.208
AACTTGCA	0.0129
GCCCCTGA	-0.0535
ACGGTTTG	0.0815
CGGGATCC	-0.00773
CCGTGAAA	0.129

Sequence	PBM E-score
CTTTACTA	0.0971
CCTCTTCA	0.0526
ATAAGTAA	0.123
GTGAGCCA	-0.0733
ATAAATAA	0.266
CAATGGAA	0.0433
ACAGGCCC	0.0896
AACTAAAT	0.188
AATCACCA	0.0129
CCACTTTC	0.0181
CAGCCCAA	-0.0109
CCCACTGC	-0.0833
GGCCACGA	-0.00594
TAGCTCCA	-0.074
CGAACCGA	-0.0902
AGTGGCGG	0.00523
TCGTGCCA	-0.051
TCGGCCAA	-0.0251
CGAATGGC	0.109
CAGGGACG	-0.0549
CACTAGCA	-0.146
AGATACGA	0.125
ATGGGCTG	-0.202
GTAACGAC	-0.053
CATTCTTC	-0.119

Sequence	PBM E-score
TACCAAAA	0.204
GAGCCAGA	-0.0414
GAGAGCCC	-0.384
ACAGTCTG	-0.111
CCGTCAAA	0.0523
GATTTGAA	0.129
TCGCCCGA	-0.105
CGGATAGC	-0.161
ACTAAGGA	-0.129
TACTCAGA	0.0273
ATTAGAGC	0.0484
ACATCGAT	0.0247
GACACGCC	-0.0148
AGCTGGTA	-0.132
CTCAGTCA	0.0212
GGAAATTA	0.0595
CTGACTGC	-0.146
GTGGAGGA	-0.0464
CTAGGCAC	-0.156
GTACCTCA	-0.173
GCCTGATA	-0.066
AAAGGAAG	0.131
CTCGCGAA	-0.0542
ACATACCG	-0.117
AGCATCAT	-0.131

Sequence	PBM E-score
AGCTCGCA	-0.121
GACCACTC	-0.0235
TACGATAA	0.0619
CAAATTTC	0.139
AACTCGCT	0.0734
ATCTGCAG	-0.069
GCAGCTAA	-0.0419
GAAATTAC	0.176
CGCAGTAA	-0.00333
GCATCGTA	-0.108
AGTTCGGG	0.0926
GCAGTCTA	-0.0872
GCGAACGC	-0.0675
CAGCTTGC	-0.0975
CACTGTTC	0.0569
TAAGTTCA	0.151
CTAGCAGC	0.0464
ATATACAG	0.143
ATGTTACA	0.297
CCAGATTA	0.113
ACTAGTTC	0.0193
ACCCCTTG	-0.176
AAAAGTAC	0.154
GGTTAGTA	0.0303
ACGGGCGG	0.0155

Sequence	PBM E-score
AAGTTTCT	0.213
ATCCGTCA	-0.0362
TCAGCAAA	0.125
ATTTCCTA	0.151
AAGCTTTC	0.0154
CAAGCCGG	0.123
TCGACTCA	0.092
ACGCCTAT	-0.132
CGCGACCG	0.115
GAGAGCGC	-0.102
GCTAAGAA	0.0183
ACCATACA	0.0187
CGTAAGAG	-0.0457
CGTTCGTA	0.0776
ACGTACCG	-0.0992
GAATGATC	0.00293
AGGTACCT	-0.353
CCTGAATC	0.132
TATGGAGA	0.0138
CTTAGCAC	-0.0994
GCTATAAA	0.139
GTTGTTAA	0.23
AGTTAGTA	0.0408
ACTGCTAC	-0.0429
AGCCGGCT	0.042

Sequence	PBM E-score
AGGATCTG	-0.0723
CTTAGCCC	-0.0774
GACGAAAA	0.238
GGTTTCCA	-0.0565
CGTTAGCA	-0.00614
AGCATCGG	-0.158
ACACGGAA	0.114
CGGGCAAA	-0.043
AGGCTTTA	-0.067
CAGAGCCA	-0.0745
ATCCTTAC	0.0612
ATAGATGA	0.0748
ATCGATAA	0.0819
ACCCGTGG	-0.163
GTTTTGGA	0.218
CTCGACAA	-0.0192
CAATATGG	0.0197
AACCTACG	-0.0482
ACTATGTA	0.124
